From the RNAGym collection of RNA variant scans (doi:10.1093/nar/gkz1192) come the findings set out here.

The source gives no read counts; variants with many changes may rest on few reads.

B1: CPEB3 Ribozyme (parent)
chain: UAACAGGGGGCCACAGCAGAAGCGUUCACGUCGCAGCCCCUGUCAGAUUCUGGUGAAUCUGCGAAUUCUGCUGUAUAUCUC

In this data set the parent is B1. Briefly: self-cleavage, relative activity (ratio to wild type); higher = more cleavage; in vitro, sequencing. In short, it runs like this: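 CPEB3 self-cleaving ribozyme mutant libraries were made by rounds of error-prone PCR, barcoded, and transcribed in vitro with T7 RNA polymerase for 5 hours at 37°C. Cleavage occurred during transcription and a 15 min DNase I step before EDTA stop. RNAs were reverse transcribed with template switching and Illumina-sequenced, with DNA sequencing mapping barcodes to variants. Relative activity is the variant's cleaved/total read fraction divided by wild type's (minimum 5 reads), averaged across three batches.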
A5G A13U U60C U78C: the self-cleavage amounted to 0.17.

Regarding A5C C11U U49C U58C U60A U78A, the self-cleavage came to 0.06. Under A5G A13G U54C stands 0.66. As to A5C G7A A21G U25C U26A A64G U69A, the self-cleavage came to 0.11.

Consider A5G A13U C44A, for which the self-cleavage is 0.09.

As for A5C A35G U60A, the self-cleavage is 1.19.

Turning to A5G A13G G22A U31A A57G, the self-cleavage came out at 0.25.

With A5G A15U A21U U74A U80A, the self-cleavage stood at 0.07.

For the variant C4U U41C A47U A65G U72C, the self-cleavage stood at 0.35.

As for A5C A13G G24C U69A G73U, the self-cleavage was 0.38.

As for C4U U25C A28U G30A U67C, the self-cleavage worked out at 0.15. For A5G A13U U41A U43C, the self-cleavage is 0.35.

Turning to A5G A18G A20U U48C, the self-cleavage came out at 0.44.

For the variant A5G A18G C29G U51C U69C G70U, the self-cleavage is 0.06. For A5G A13G A56C U76A, the self-cleavage turned out to be 0.19.

Take A5G A18G U31C G46U C62G A75U: the self-cleavage came out at 0.17.

For C4U U58A C62U U80C, the self-cleavage came out at 0.14. Under A5G A13G A47G G63U stands 0.98; under A5G A15U A35G C71U, 0.69.

As for A5C U43A U51A U74C, the self-cleavage stood at 1.13. For A5C U69G U78C, the self-cleavage is 0.63. Turning to A5C A15G G22A U41C A57G U80C, the self-cleavage was found to be 0.1. Under A5G A15G U25C U51C U67C stands 0.21; under A5G A13U G53U, 0.98; under A5G A13U G24U A45G A56G, 0.26. Under A5G A13U C59U A64G A75U stands 0.39. As to C4U G16U U72A, the self-cleavage amounted to 0.57. Consider A5C A20G U26A A56U, for which the self-cleavage turned out to be 0.49. With A5C A28G A65G A75U the figure was 0.18; with A5C A28G A64G, 0.52. On to A5G A18G A28G U48C G52U U67C, for which the self-cleavage was 0.37. Under A5C C27U A56G A57G C62G U80C stands 0.17; under A5G A15G U49C, 0.33. Under A5G A18U U41G U60A A64G stands 0.4.

As to A5G A15G A47G U51A, the self-cleavage came out at 0.54. With A5G A15G U26C C29U A56G the figure was 0.42; with A5C A21G U51A U60A, 0.19. As for A5G A13G U41C C50U, the self-cleavage stood at 0.24. Regarding A5C U25G A35G, the self-cleavage came out at 0.11. Under A5G A15U G19A U49A U60C U74A U80G stands 0.06; under A5C A15G A18U U26C, 0.2.

Turning to A5G A18U C40G U60C C62G U80C, the self-cleavage stood at 0.08. Under A5C A18U C37G stands 0.39; under A5C G30A A35U, 0.24; under A5G A15G U41C U54G U66C, 0.2. With A5G A18U U41G A75U the figure was 0.11; with A5G A18C U41A A57G C68A, 0.28; with A5G A15U A28G A57G A64G U76C, 0.39. With C4U U26A G33C U58A the figure was 0.1. For C4U U49C G52U, the self-cleavage was 0.51. With A5C U51G C62U A64G U78C the figure was 0.17; with A5G A15U G16A G22A A35G U48C A64U, 0.07; with A5C U31C U41C U58A, 0.27. Under A5C A13U U72A stands 0.55; under A5G A15G U80C, 0.77; under A5G A13U U31C U48A U54G U72C, 0.16. With C4U U31A A35U U48C U80C, the self-cleavage stood at 0.18.

Take A5G A18G A64U U67A: the self-cleavage stood at 0.09.

As for A5G A13U A35G A45U, the self-cleavage turned out to be 0.65. For the variant C4U U26A U58C U66C U72A U76C, the self-cleavage is 0.18. Under A5G A13G U41A U43C A45G U69A A77G stands 0; under A5C C34U U48C U58C U66C, 0.18; under C4U U41C A47C A56U, 0.26. Consider A5G A13C A20G U41C A64G U72C A77G, for which the self-cleavage stood at 0.1.

In the case of A5G A15U C38A U48C, the self-cleavage amounted to 0.32. Consider A5G A13G U41A A45G U60C, for which the self-cleavage is 0.19.

In the case of A5C G6A A20G U67C, the self-cleavage turned out to be 0.09.

As for A5G A15U U31A U78C, the self-cleavage came out at 0.45. Under A5G A13G A21G A47G U80C stands 0.67; under A5G A15G A35G A45G U66C, 0.11; under A5G A13U U51A U58C G63A, 0.22. On to A5G A18C U67C, for which the self-cleavage is 0.39.

Regarding C4U G24A C27G U60C, the self-cleavage was 0.09.

As to A5G A13U C32G C37G A56U, the self-cleavage turned out to be 0.23. Under A5C G52U A65G U80G stands 0.56.

As for A5G A15G U31C A57C A64G, the self-cleavage worked out at 0.49.

For the variant A5G A13G G33A C50A U78C, the self-cleavage stood at 0.35.

For the variant C4U U43G U58G, the self-cleavage is 0.32.

Regarding A5G A13U U48C, the self-cleavage was 0.5. For A5G A13U U41C A45G U49C U72C, the self-cleavage worked out at 0.11. Regarding C4U U41A A45C, the self-cleavage is 0.17.

As to C4U U25C A75G U78C, the self-cleavage was 0.08.

Consider A5C A15G A56U A75U, for which the self-cleavage amounted to 0.5.

For A5G A15G U69C, the self-cleavage came to 0.33.
